In test [1] the target is Myc-EhAgo2-2^ΔNLS-DR (E. histolytica) (UniProt C4LVV2). As to the kind of experiment: co-IP; anti-c-Myc agarose IP from whole-cell lysate of E. histolytica lines overexpressing the Myc-tagged protein, 2 h at 4°C; Western blot of the eluate (custom anti-EhAgo2-2, anti-actin, anti-histone 3). Background: A western blot detects proteins with antibodies after separation by electrophoresis.

Test [2] deals with T1, Myc-EhAgo2-2 (E. histolytica) (UniProt C4LVV2).
T1 sequence: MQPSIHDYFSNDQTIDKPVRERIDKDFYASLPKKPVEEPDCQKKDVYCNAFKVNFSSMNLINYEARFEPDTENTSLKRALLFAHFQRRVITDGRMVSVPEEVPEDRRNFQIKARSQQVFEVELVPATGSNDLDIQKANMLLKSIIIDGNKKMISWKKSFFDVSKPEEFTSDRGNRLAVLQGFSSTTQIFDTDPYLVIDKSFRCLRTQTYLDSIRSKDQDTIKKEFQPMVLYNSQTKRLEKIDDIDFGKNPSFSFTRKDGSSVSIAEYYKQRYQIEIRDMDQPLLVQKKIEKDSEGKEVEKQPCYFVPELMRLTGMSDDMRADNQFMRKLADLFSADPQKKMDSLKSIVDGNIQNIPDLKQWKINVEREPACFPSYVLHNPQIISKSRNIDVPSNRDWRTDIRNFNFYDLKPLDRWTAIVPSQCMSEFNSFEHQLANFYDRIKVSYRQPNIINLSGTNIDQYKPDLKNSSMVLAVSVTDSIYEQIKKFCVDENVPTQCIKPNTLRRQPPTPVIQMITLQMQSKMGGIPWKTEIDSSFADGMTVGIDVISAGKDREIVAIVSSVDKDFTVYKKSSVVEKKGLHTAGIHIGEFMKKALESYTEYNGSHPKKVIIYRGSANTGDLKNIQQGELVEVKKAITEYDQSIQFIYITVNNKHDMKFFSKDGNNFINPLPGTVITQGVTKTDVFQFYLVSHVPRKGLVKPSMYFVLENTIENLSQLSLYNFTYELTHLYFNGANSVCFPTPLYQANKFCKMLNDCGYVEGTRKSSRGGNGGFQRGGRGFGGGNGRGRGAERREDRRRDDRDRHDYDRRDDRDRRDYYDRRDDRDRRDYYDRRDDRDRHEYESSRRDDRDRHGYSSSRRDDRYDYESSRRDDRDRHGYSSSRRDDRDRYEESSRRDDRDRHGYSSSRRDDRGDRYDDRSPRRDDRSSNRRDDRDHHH
Described as above.

For test [3], the target named is T2, GST-NAP12 (E. histolytica) (UniProt C4M8H9).
T2 sequence: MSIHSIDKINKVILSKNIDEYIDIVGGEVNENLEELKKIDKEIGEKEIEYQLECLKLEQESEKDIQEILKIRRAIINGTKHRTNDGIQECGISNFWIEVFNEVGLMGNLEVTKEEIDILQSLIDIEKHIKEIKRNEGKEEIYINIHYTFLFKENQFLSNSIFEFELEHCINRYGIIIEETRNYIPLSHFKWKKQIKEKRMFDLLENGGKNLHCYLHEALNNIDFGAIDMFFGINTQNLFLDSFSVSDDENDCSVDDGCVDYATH
As to the kind of experiment: pull-down; GST-tagged bait bound from bacterial lysate to glutathione beads and washed; incubated with bacterial lysate containing the His-tagged prey, 15 min at room temperature then 1 h at 4°C; washed with GST-wash buffer (350 mM NaCl); eluted with glutathione; SDS-PAGE, Coomassie; only the target purified.

For test [4], the target named is T3, Myc-NAP12 (E. histolytica) (UniProt C4M8H9).
T3 sequence: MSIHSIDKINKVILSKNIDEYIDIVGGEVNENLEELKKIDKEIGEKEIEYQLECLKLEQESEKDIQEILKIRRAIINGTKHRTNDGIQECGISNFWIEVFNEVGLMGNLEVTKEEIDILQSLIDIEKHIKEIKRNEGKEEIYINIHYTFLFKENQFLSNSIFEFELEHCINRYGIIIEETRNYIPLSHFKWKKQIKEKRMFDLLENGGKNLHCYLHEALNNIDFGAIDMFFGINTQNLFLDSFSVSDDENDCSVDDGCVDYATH
As to the kind of experiment: co-IP; anti-c-Myc agarose IP from whole-cell lysate of E. histolytica lines overexpressing the Myc-tagged protein, 2 h at 4°C; Western blot of the eluate (custom anti-EhAgo2-2, anti-actin, anti-histone 3).

The target of test [5] is T2, GST-NAP12 (E. histolytica). The test is described as follows: pull-down; GST-tagged NAP bait (or GST-NAP12 prebound with His-NAP07) on glutathione-agarose beads incubated with whole-cell lysate of parasites overexpressing Myc-EhAgo2-2; eluate analysed by silver stain and anti-Myc Western blot; only the target purified.
Test [6] deals with T4, prebound NAPs of GST-NAP12 with His-NAP07 (E. histolytica) (UniProt C4M8H9+C4M608).
T4 sequence 1: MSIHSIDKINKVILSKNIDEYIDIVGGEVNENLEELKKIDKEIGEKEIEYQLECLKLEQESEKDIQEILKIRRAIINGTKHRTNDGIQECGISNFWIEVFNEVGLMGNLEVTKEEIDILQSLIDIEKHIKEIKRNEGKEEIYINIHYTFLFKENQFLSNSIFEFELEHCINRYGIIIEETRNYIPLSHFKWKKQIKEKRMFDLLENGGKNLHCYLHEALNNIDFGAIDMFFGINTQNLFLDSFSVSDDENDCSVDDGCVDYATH
T4 sequence 2: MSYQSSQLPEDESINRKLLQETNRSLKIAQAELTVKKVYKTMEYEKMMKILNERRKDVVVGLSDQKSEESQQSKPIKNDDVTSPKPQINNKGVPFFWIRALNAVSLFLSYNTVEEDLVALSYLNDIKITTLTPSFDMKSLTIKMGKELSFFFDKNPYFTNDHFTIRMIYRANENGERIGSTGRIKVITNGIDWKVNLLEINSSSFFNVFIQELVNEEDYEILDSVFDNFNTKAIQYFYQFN
The description is as above.

In test [7] the target is T5, GST-NAP07 (E. histolytica) (UniProt C4M608).
T5 sequence: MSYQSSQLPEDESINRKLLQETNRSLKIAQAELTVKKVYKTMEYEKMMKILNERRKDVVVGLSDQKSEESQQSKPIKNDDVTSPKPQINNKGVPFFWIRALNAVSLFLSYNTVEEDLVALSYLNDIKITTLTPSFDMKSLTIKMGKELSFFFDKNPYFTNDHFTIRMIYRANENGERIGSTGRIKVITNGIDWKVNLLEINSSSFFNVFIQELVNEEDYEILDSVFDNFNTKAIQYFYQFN
The test is described as follows: pull-down; GST-tagged bait bound from bacterial lysate to glutathione beads and washed; incubated with bacterial lysate containing the His-tagged prey, 15 min at room temperature then 1 h at 4°C; washed with GST-wash buffer (350 mM NaCl); eluted with glutathione; SDS-PAGE, Coomassie; only the target purified.

No constants are given. Whether binding was seen depends on the method and setting. Binding seen in cells or lysates may run through a third protein. Some results given as binding are weak or reduced against the parent protein; the word gives no strength. For some of these results: Tags and fused reporters may be left off the sequences shown.

For the molecule actin (from UniProt P11426 1-376), the binding result in test [1] and in test [2] was “no binding” each time.

B1: His-NAP07 (protein, UniProt C4M608 1-241)
chain: MSYQSSQLPEDESINRKLLQETNRSLKIAQAELTVKKVYKTMEYEKMMKILNERRKDVVVGLSDQKSEESQQSKPIKNDDVTSPKPQINNKGVPFFWIRALNAVSLFLSYNTVEEDLVALSYLNDIKITTLTPSFDMKSLTIKMGKELSFFFDKNPYFTNDHFTIRMIYRANENGERIGSTGRIKVITNGIDWKVNLLEINSSSFFNVFIQELVNEEDYEILDSVFDNFNTKAIQYFYQFN
Take B1: the binding result in test [3] was “binds”.

B2: EhAgo2-2 (endogenous) (protein, UniProt C4LVV2 1-937)
chain: MQPSIHDYFSNDQTIDKPVRERIDKDFYASLPKKPVEEPDCQKKDVYCNAFKVNFSSMNLINYEARFEPDTENTSLKRALLFAHFQRRVITDGRMVSVPEEVPEDRRNFQIKARSQQVFEVELVPATGSNDLDIQKANMLLKSIIIDGNKKMISWKKSFFDVSKPEEFTSDRGNRLAVLQGFSSTTQIFDTDPYLVIDKSFRCLRTQTYLDSIRSKDQDTIKKEFQPMVLYNSQTKRLEKIDDIDFGKNPSFSFTRKDGSSVSIAEYYKQRYQIEIRDMDQPLLVQKKIEKDSEGKEVEKQPCYFVPELMRLTGMSDDMRADNQFMRKLADLFSADPQKKMDSLKSIVDGNIQNIPDLKQWKINVEREPACFPSYVLHNPQIISKSRNIDVPSNRDWRTDIRNFNFYDLKPLDRWTAIVPSQCMSEFNSFEHQLANFYDRIKVSYRQPNIINLSGTNIDQYKPDLKNSSMVLAVSVTDSIYEQIKKFCVDENVPTQCIKPNTLRRQPPTPVIQMITLQMQSKMGGIPWKTEIDSSFADGMTVGIDVISAGKDREIVAIVSSVDKDFTVYKKSSVVEKKGLHTAGIHIGEFMKKALESYTEYNGSHPKKVIIYRGSANTGDLKNIQQGELVEVKKAITEYDQSIQFIYITVNNKHDMKFFSKDGNNFINPLPGTVITQGVTKTDVFQFYLVSHVPRKGLVKPSMYFVLENTIENLSQLSLYNFTYELTHLYFNGANSVCFPTPLYQANKFCKMLNDCGYVEGTRKSSRGGNGGFQRGGRGFGGGNGRGRGAERREDRRRDDRDRHDYDRRDDRDRRDYYDRRDDRDRRDYYDRRDDRDRHEYESSRRDDRDRHGYSSSRRDDRYDYESSRRDDRDRHGYSSSRRDDRDRYEESSRRDDRDRHGYSSSRRDDRGDRYDDRSPRRDDRSSNRRDDRDHHH
On to B2, for which, in test [4], the binding entry is on record as “binds”.

B3: Myc-EhAgo2-2 (protein, UniProt C4LVV2 1-937)
chain: MQPSIHDYFSNDQTIDKPVRERIDKDFYASLPKKPVEEPDCQKKDVYCNAFKVNFSSMNLINYEARFEPDTENTSLKRALLFAHFQRRVITDGRMVSVPEEVPEDRRNFQIKARSQQVFEVELVPATGSNDLDIQKANMLLKSIIIDGNKKMISWKKSFFDVSKPEEFTSDRGNRLAVLQGFSSTTQIFDTDPYLVIDKSFRCLRTQTYLDSIRSKDQDTIKKEFQPMVLYNSQTKRLEKIDDIDFGKNPSFSFTRKDGSSVSIAEYYKQRYQIEIRDMDQPLLVQKKIEKDSEGKEVEKQPCYFVPELMRLTGMSDDMRADNQFMRKLADLFSADPQKKMDSLKSIVDGNIQNIPDLKQWKINVEREPACFPSYVLHNPQIISKSRNIDVPSNRDWRTDIRNFNFYDLKPLDRWTAIVPSQCMSEFNSFEHQLANFYDRIKVSYRQPNIINLSGTNIDQYKPDLKNSSMVLAVSVTDSIYEQIKKFCVDENVPTQCIKPNTLRRQPPTPVIQMITLQMQSKMGGIPWKTEIDSSFADGMTVGIDVISAGKDREIVAIVSSVDKDFTVYKKSSVVEKKGLHTAGIHIGEFMKKALESYTEYNGSHPKKVIIYRGSANTGDLKNIQQGELVEVKKAITEYDQSIQFIYITVNNKHDMKFFSKDGNNFINPLPGTVITQGVTKTDVFQFYLVSHVPRKGLVKPSMYFVLENTIENLSQLSLYNFTYELTHLYFNGANSVCFPTPLYQANKFCKMLNDCGYVEGTRKSSRGGNGGFQRGGRGFGGGNGRGRGAERREDRRRDDRDRHDYDRRDDRDRRDYYDRRDDRDRRDYYDRRDDRDRHEYESSRRDDRDRHGYSSSRRDDRYDYESSRRDDRDRHGYSSSRRDDRDRYEESSRRDDRDRHGYSSSRRDDRGDRYDDRSPRRDDRSSNRRDDRDHHH
As to B3, the binding entry in test [5] and in test [6] was “binds” throughout.

B4: His-NAP12 (protein, UniProt C4M8H9 1-264)
chain: MSIHSIDKINKVILSKNIDEYIDIVGGEVNENLEELKKIDKEIGEKEIEYQLECLKLEQESEKDIQEILKIRRAIINGTKHRTNDGIQECGISNFWIEVFNEVGLMGNLEVTKEEIDILQSLIDIEKHIKEIKRNEGKEEIYINIHYTFLFKENQFLSNSIFEFELEHCINRYGIIIEETRNYIPLSHFKWKKQIKEKRMFDLLENGGKNLHCYLHEALNNIDFGAIDMFFGINTQNLFLDSFSVSDDENDCSVDDGCVDYATH
Regarding B4, the binding entry in test [7] is “binds”.

The values are drawn from publication PMC8546589.
